# Measurements as given in the RNAGym collection of RNA variant scans (doi:10.1093/nar/gkz1192).
# Read counts are not given, so values of variants with three or more changes are uncertain.
# B1: CPEB3 Ribozyme (parent)
# chain: UAACAGGGGGCCACAGCAGAAGCGUUCACGUCGCAGCCCCUGUCAGAUUCUGGUGAAUCUGCGAAUUCUGCUGUAUAUCUC
# Variants of: B1
# Assay: self-cleavage, relative activity (ratio to wild type); higher = more cleavage; in vitro, sequencing
# Procedure, shortened: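 Libraries of CPEB3 self-cleaving ribozyme mutants came from rounds of error-prone PCR and carried barcodes, which DNA sequencing matched to variants. In vitro transcription used T7 RNA polymerase at 37°C for 5 hours, with a further 15 min in DNase I before EDTA stopped the reaction; the ribozymes cleaved during both steps. The RNA was reverse transcribed with template switching and sequenced on Illumina. Relative activity is the cleaved/total read fraction of a variant divided by that of the unmutated ribozyme, averaged over three batches with at least 5 reads.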
row,Variant,self-cleavage
1,UAACAGGAGGCCACAGCAGAAGCGUUCACGUCGCAGCCCCUGUCAGAUCCUGGUGAAUCUGCGAAUUCUGCUGUAUAUCCC [G8A U49C U80C],0.09
2,UAACAGGAGGCCACAGCAGAAGCGUUCACGUCGCAGCCCCUGUCAGAUUCCGGUGCAUCUGCGAAUUCUGCUUUAUAUCUC [G8A U51C A56C G73U],0.04
3,UAACAGGAGGCCACAGCAGAAGCGUUCACGUCGCAGCCCCUGUCAGAUUCCGGUGAAUCUGCGGAUUCUGCUGUAUGUCUC [G8A U51C A64G A77G],0.04
4,UAACAGGAGGCCACAGCAGAAGCGUUCACGUCGCAGCCCCUGUCAGAUUCUGGAGAGUCUGCGAAUUCAGCUGUAUAUCUC [G8A U54A A57G U69A],0.37
5,UAACAGGAGGCCACAGCAGAAGCGUUCACGUCGCAGCCCCUGUCAGAUUCUGGCGGGUCUGCGAAUUCUGCCGUAUAUCUC [G8A U54C A56G A57G U72C],0.15
6,UAACAGGAGGCCACAGCAGAAGCGUUCACGUCGCAGCCCCUGUCAGAUUCUGGGGAAUCUGCGAAUUCUGCUAUAUAUCUC [G8A U54G G73A],0.5
7,UAACAGGAGGCCACAGCAGAAGCGUUCACGUCGCAGCCCCUGUCAGAUUCUGGUGAACCUGCGAAUUCUGCUAUAUAACUC [G8A U58C G73A U78A],0.08
8,UAACAGGAGGCCACAGCAGAAGCGUUCACGUCGCAGCCCCUGUCAGAUUCUGGUGAAUCCGCGAAAUCUGCUGUAUAUCUC [G8A U60C U66A],0.07
9,UAACAGGAGGCCACAGCAGAAGCGUUCACGUCGCAGCCCCUGUCAGAUUCUGGUGAAUCCGCGAAUUCUGCCGUAUAUCCC [G8A U60C U72C U80C],0.07
10,UAACAGGAGGCCACAGCAGAAGCGUUCACGUCGCAGCCCCUGUCAGAUUCUGGUGAAUCUGCGAACUCUGCCGCAUAUCUC [G8A U66C U72C U74C],0.07
11,UAACAGGAGGCCACAGCAGAAGCGUUCACGUCGCAGCCCCUGUCAGAUUCUGGUGAAUCUGCGAAUUCCGCUGUAUAACUC [G8A U69C U78A],0.2
12,UAACAGGAGGCCACAGCAGAAGCGUUCACGUCGCAGCCCCUGUCAGAUUCUGGUGAAUCUGCGAAUUCUGCUGUAUAUCAU [G8A U80A C81U],0.29
13,UAACAGGCGGCCGCAGCAGAAGCGUUCACGUUGCAGCCCCUGUUAGAUUCUGGUGAAUCUGCGAAUUCUGCUGUAUAUCCC [G8C A13G C32U C44U U80C],0.3
14,UAACAGGCGGCCUCAGCAGAAGCGUCCACGUCGCAGCCCCUGUCAGAUUCUGGUGAAUCUGCGAAUUCAGCUGUAUAUCUC [G8C A13U U26C U69A],0.1
15,UAACAGGCGGCCUCAGCAGAAGCGUUCACGCCGCAGCCCCUGUCAGAUUCUGGUGAAUCUGCGAAUUCUGCUGUAUAUCUC [G8C A13U U31C],0.17
16,UAACAGGCGGCCACGGCAGAAGCGUUCACGUCGCGGCCCCUGUCAGAUUCUGGUGAAUCUGCGAAUUCUGCAGUAUAUCUC [G8C A15G A35G U72A],0.09
17,UAACAGGCGGCCACGGCAGAAGCGUUCACGUCGCAGCCCCUGUCAGAUUCUGGUGAAUCUGCGAAUUCUGCUGUACAUCUC [G8C A15G U76C],0.07

row,Variant,self-cleavage
1,UAACAGGCGGCCACUGCAGAAGCGUUCACGCCGCAGCCCCUGUCAGAUUCUGGUGAAUCUGCGAAUUCUGCUGUAUAUCUC [G8C A15U U31C],0.08
2,UAACAGGCGGCCACAGCAGGAGCGUUCACGUCGCAGCCCCUGUCAGAUUUUGGUGAAUCUGCGAACUCUGCUGUAUAUCUC [G8C A20G C50U U66C],0.5
3,UAACAGGCGGCCACAGCAGGAGCGUUCACGUCGCAGCCCCUGUCAGAUUCUGGCGAAUCUGCGAACUCUGCUGUAUAUCUC [G8C A20G U54C U66C],0.05
4,UAACAGGCGGCCACAGCAGUAGCGUACACGUCGCAGCCCCUGUCAGAUUCUGGUGAAUCUGCGAAUUCUGCUGUAUAUCUC [G8C A20U U26A],0.22
5,UAACAGGCGGCCACAGCAGAGGCGUUCACGUCACAGCCCCUGUCAGAUUCCAGUGAAUCUGCGAAUUCUGCUGUAUAUCCC [G8C A21G G33A U51C G52A U80C],0.05
6,UAACAGGCGGCCACAGCAGAAGCGUUCCCGUCGCAGCCCCUGUCAGAUUCUGGUGAGUCUGCGAAUUCUGCUGUAUAUCUC [G8C A28C A57G],0.22
7,UAACAGGCGGCCACAGCAGAAGCGUUCGCAACGCAGCCCCUGUCAGAUUCUGGUGAAUCUGCGAAUUCUGCUGUAUAUCUC [G8C A28G G30A U31A],0.06
8,UAACAGGCGGCCACAGCAGAAGCGUUCACGUCGCAGCCCCUGUCAGAUUCUGGUGGAUCUCCGAAUUCUGCUGUAUAUCCC [G8C A56G G61C U80C],0.06
9,UAACAGGCGGCCACAGCAGAAGCGUUCACGUCGCAGCCCCUGUCAGAUUCUGGUGUAUCUGCGAAUCCUGCUGUAUAUCUC [G8C A56U U67C],0.07
10,UAACAGGCGGCGACAGCAGAAGCGUUCACGUCGCAGCCGCUGUCAGAUUCUGGUGAAUCUGCGAAUUCAGCUGUAUAUCUC [G8C C12G C39G U69A],0.21
11,UAACAGGCGGCCACAGUAGAAGCGUUCACGUCGCAGCCCCUGUCAGAUUCAUGUGAAUCUGCGAAUUCUGCCGUAUAUCUC [G8C C17U U51A G52U U72C],0.08
12,UAACAGGCGGCCACAGCAGAAGAGUCCACGUCGCAGCCCCUGUCAGAUUCUGGUGAAUCUGCGAAUUCUGCUGUAUAUCUC [G8C C23A U26C],0.09
13,UAACAGGCGGCCACAGCAGAAGUGUUCACGUCGCAGCCCCUGACAGAUUCUGGUGAAUCUGCGAAUUCUACUUUAUAUCUC [G8C C23U U43A G70A G73U],0.04
14,UAACAGGCGGCCACAGCAGAAGCGUUCACGUCGGAGCCCCUGUCAGAAUCUGGUGAAUCUGCGAAUUCUGCUGUAUAUCUC [G8C C34G U48A],0.2
15,UAACAGGCGGCCACAGCAGAAGCGUUCACGUCGCAGCCUCUGUCAGAUUCUCGUGAAUCUGCGAAUUCUGCUGCACAUCUC [G8C C39U G52C U74C U76C],0.09
16,UAACAGGCGGCCACAGCAGAAGCGUUCACGUCGCAGCCCUUGUCAGAUUCUGGUGAACCUGCGAAUCCUGCUGUAUAUCUC [G8C C40U U58C U67C],0.13
17,UAACAGGCGACCACAGCAGAAGCGUUCACGUCGCAGCCCCUGUCAGUUUCUGGCGAAUCUGCGAAUUCUGCUGUGUAUCUC [G8C G10A A47U U54C A75G],0.04
